{"source": "paper PMC4336329", "about": "(PLoS ONE, 2015)", "note": "Screen size: about 310,000 compounds; about 2,200 (0.71%) showed an effect of 50% or more. Effects have a minus sign here. The list shows a part of the results.", "data": [{"target": "human ether-à-go-go-related gene (hERG) potassium channel (human, UniProt Q12809)", "sequence (Q12809 whole entry, looked up)": "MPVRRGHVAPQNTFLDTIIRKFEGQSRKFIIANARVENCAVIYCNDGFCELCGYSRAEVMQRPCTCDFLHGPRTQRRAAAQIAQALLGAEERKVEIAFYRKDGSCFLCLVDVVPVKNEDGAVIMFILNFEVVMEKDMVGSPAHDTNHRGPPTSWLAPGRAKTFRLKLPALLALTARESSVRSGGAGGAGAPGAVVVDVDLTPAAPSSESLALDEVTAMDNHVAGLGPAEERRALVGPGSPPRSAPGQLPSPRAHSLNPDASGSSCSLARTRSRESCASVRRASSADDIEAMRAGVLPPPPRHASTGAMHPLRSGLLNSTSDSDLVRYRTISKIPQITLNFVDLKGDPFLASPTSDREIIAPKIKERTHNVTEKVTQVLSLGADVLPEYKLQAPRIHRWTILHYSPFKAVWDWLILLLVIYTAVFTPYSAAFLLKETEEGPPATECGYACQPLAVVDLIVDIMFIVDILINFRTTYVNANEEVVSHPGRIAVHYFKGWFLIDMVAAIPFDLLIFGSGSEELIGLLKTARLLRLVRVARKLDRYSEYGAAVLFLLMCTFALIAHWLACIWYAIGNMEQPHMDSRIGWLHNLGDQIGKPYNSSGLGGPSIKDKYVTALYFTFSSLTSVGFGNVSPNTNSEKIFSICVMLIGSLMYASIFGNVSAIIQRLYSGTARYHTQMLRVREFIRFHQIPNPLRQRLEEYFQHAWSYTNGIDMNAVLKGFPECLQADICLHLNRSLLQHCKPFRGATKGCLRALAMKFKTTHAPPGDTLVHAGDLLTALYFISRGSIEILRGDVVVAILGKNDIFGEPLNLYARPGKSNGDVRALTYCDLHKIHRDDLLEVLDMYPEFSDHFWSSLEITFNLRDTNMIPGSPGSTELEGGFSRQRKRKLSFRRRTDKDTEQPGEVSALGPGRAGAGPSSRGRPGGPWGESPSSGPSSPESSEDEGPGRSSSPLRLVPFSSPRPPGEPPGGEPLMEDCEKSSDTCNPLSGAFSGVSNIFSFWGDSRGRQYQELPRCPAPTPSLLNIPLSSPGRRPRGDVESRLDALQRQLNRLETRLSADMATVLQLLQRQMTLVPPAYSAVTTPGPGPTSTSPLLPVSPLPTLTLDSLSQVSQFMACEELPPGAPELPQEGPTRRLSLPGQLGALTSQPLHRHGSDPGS", "test": "primary screen, population patch clamp on CHO cells stably expressing hERG", "units": {"hERG current change (%, negative = inhibition) at 1uM": "%"}, "values": [{"smiles": "CN(C)S(=O)(=O)c1cccc(NC(=O)COC(=O)/C=C/c2ccc(Br)o2)c1", "hERG current change (%, negative = inhibition) at 1uM": -1.91}, {"smiles": "O=S1(=O)CC2(N3CCOCC3)CCCCCCC21", "note": "(stereo not drawn)", "hERG current change (%, negative = inhibition) at 1uM": 9.96}, {"smiles": "CC(C)(C)NC(=O)NC(=O)COC(=O)c1nc(-c2ccccc2)n(-c2cccc(C(F)(F)F)c2)n1", "hERG current change (%, negative = inhibition) at 1uM": 10.1}, {"smiles": "COc1ccc(NC(=O)N2CCCC2C(=O)NCc2cccs2)cc1", "note": "(stereo not drawn)", "hERG current change (%, negative = inhibition) at 1uM": 11.6}, {"smiles": "COc1ccc2c(c1)[n+](=O)c(C(C)=O)c(C)n2[O-]", "hERG current change (%, negative = inhibition) at 1uM": 16}, {"smiles": "O=C(Oc1nsnc1N1CCOCC1)N(c1ccccc1)c1ccccc1", "hERG current change (%, negative = inhibition) at 1uM": -5.59}, {"smiles": "COc1cc(C)ccc1OCCOCCOc1ccc(C)cc1[N+](=O)[O-]", "hERG current change (%, negative = inhibition) at 1uM": 5.47}, {"smiles": "O=[N+]([O-])c1ccccc1NCCOc1ccccc1", "hERG current change (%, negative = inhibition) at 1uM": 13}, {"smiles": "CCc1nnc(NC(=O)C2=NN(C3CCS(=O)(=O)C3)C(=O)CC2)s1", "note": "(stereo not drawn)", "hERG current change (%, negative = inhibition) at 1uM": 17.5}, {"smiles": "O=C(O)c1cc(NS(=O)(=O)c2cccs2)cc(NS(=O)(=O)c2cccs2)c1", "hERG current change (%, negative = inhibition) at 1uM": 7.24}, {"smiles": "CCCCNC(=S)NCCN1CCN(C(=S)NCCCC)CC1.Cl", "hERG current change (%, negative = inhibition) at 1uM": -0.0402}, {"smiles": "Cc1cc(C(=O)NCc2cccs2)nn1C", "hERG current change (%, negative = inhibition) at 1uM": 11.1}, {"smiles": "Cc1cc(NS(=O)(=O)Cc2ccccc2)cc(C)c1OCC(=O)N1CCOCC1", "hERG current change (%, negative = inhibition) at 1uM": 1.1}, {"smiles": "CCOc1ccc(C2c3c(oc4ccccc4c3=O)C(=O)N2CCCN2CCOCC2)cc1OCC", "note": "(stereo not drawn)", "hERG current change (%, negative = inhibition) at 1uM": 6.43}, {"smiles": "CCc1ccc(/C=C(\\Cl)c2nc3cc(Cl)ccc3c(=O)[nH]2)cc1", "hERG current change (%, negative = inhibition) at 1uM": 11.6}, {"smiles": "Cc1cccc(C)c1NC(=O)CCCn1nc(C)c2c(C)n(-c3ccccc3)nc2c1=O", "hERG current change (%, negative = inhibition) at 1uM": 14.3}, {"smiles": "O=C(O)c1[nH]c2ccccc2c1CC(=O)N1CCOCC1", "hERG current change (%, negative = inhibition) at 1uM": 11.1}, {"smiles": "CN1CCN(S(=O)(=O)c2ccc(NC(=O)c3cccs3)cc2)CC1", "hERG current change (%, negative = inhibition) at 1uM": -3.17}, {"smiles": "Cc1nn(-c2ccccc2)c(C)c1NC(=O)COc1ccc([N+](=O)[O-])cc1", "hERG current change (%, negative = inhibition) at 1uM": -30.3}, {"smiles": "O=C(/C=C/Nc1ccc(F)cc1F)c1ccc(Br)cc1", "hERG current change (%, negative = inhibition) at 1uM": 14.5}, {"smiles": "CN(CCN1CCOCC1)C(=O)CC1C(=O)NCCN1Cc1ccccc1C(F)(F)F", "note": "(stereo not drawn)", "hERG current change (%, negative = inhibition) at 1uM": 14.1}, {"smiles": "Cn1c(SCC(=O)Nc2ccc3nc(SCC(=O)N4CCCC4)sc3c2)nnc1-c1ccccc1", "hERG current change (%, negative = inhibition) at 1uM": 14}, {"smiles": "CNC(=O)NC(=O)CN1C(=O)NC2(CCOc3ccccc32)C1=O", "note": "(stereo not drawn)", "hERG current change (%, negative = inhibition) at 1uM": 13.4}, {"smiles": "O=C(CN1C(=O)C2(OCCO2)c2ccccc21)c1ccc(Cl)cc1", "hERG current change (%, negative = inhibition) at 1uM": -2.77}, {"smiles": "CC(C)N1CCN(CC2COc3ccccc3O2)CC1.Cl", "note": "(stereo not drawn)", "hERG current change (%, negative = inhibition) at 1uM": -0.358}, {"smiles": "CCOCCCNC(=S)Nc1ccc2nc(N3CCOCC3)cc(C)c2c1", "hERG current change (%, negative = inhibition) at 1uM": 9.64}, {"smiles": "CCOC(=O)c1ccc(OC)c(OC)c1Cl", "hERG current change (%, negative = inhibition) at 1uM": 12.9}, {"smiles": "COCCCN(C(=O)Nc1cccc(Cl)c1)C(C)c1ccccn1", "note": "(stereo not drawn)", "hERG current change (%, negative = inhibition) at 1uM": 15.9}, {"smiles": "CCC1(C)COC(C)(CC(=O)NNC(=O)Nc2ccccc2)OC1", "note": "(stereo not drawn)", "hERG current change (%, negative = inhibition) at 1uM": 3.32}, {"smiles": "COc1ccc(N2CCN(C(=O)c3ccc(NS(=O)(=O)c4cccc(F)c4)cc3)CC2)cc1", "hERG current change (%, negative = inhibition) at 1uM": -7.54}, {"smiles": "COc1cc(Br)c(Br)c(Br)c1N", "hERG current change (%, negative = inhibition) at 1uM": 12.2}, {"smiles": "CCOc1ccc(C(OC(=O)c2ccco2)C(=O)NCc2ccc(C)cc2)cc1", "note": "(stereo not drawn)", "hERG current change (%, negative = inhibition) at 1uM": 14.8}, {"smiles": "Cc1cccc(NC(=O)NCC2CC2)c1", "hERG current change (%, negative = inhibition) at 1uM": 11.3}, {"smiles": "COc1ccc(C(=O)CSc2nnc(CNC(=O)c3ccccc3)n2C)cc1", "hERG current change (%, negative = inhibition) at 1uM": 10}, {"smiles": "Cc1cc(C)cc(OCC(=O)Nc2cc(NC(=O)COc3cc(C)cc(C)c3)cc(C(=O)O)c2)c1", "hERG current change (%, negative = inhibition) at 1uM": 11.8}, {"smiles": "COc1ccccc1/C=C/C(=O)NCC(=O)N/N=C/c1ccccc1", "hERG current change (%, negative = inhibition) at 1uM": 8.62}, {"smiles": "CCCN(CCC)C(=O)C1c2ccccc2Oc2ccccc21", "hERG current change (%, negative = inhibition) at 1uM": 13.6}, {"smiles": "CCOC(=O)c1c(-c2ccc(C)c(C)c2)csc1NC(=O)C1CC=CCC1C(=O)O", "note": "(stereo not drawn)", "hERG current change (%, negative = inhibition) at 1uM": 9.37}, {"smiles": "CCc1ccc(NC(=O)Cn2nc(C(F)(F)F)c3c2CCC3)cc1", "hERG current change (%, negative = inhibition) at 1uM": 8.29}, {"smiles": "O=C(/C=C/c1ccc2c(c1)OCCO2)c1ccccc1", "hERG current change (%, negative = inhibition) at 1uM": 0.833}, {"smiles": "O=C(N/N=C/c1ccc(O)cc1)c1cc(C23CC4CC(CC(C4)C2)C3)[nH]n1", "hERG current change (%, negative = inhibition) at 1uM": 6.63}, {"smiles": "COc1cc(OC)cc(C(=O)NC2CCSc3ccccc32)c1", "note": "(stereo not drawn)", "hERG current change (%, negative = inhibition) at 1uM": 13.7}, {"smiles": "Cc1nc(NS(=O)(=O)c2cccs2)c2c3c(sc2n1)CCC3", "hERG current change (%, negative = inhibition) at 1uM": 12.5}, {"smiles": "O=C(COc1ccc(S(=O)(=O)NCc2ccccc2)cc1Cl)NCc1ccncc1", "hERG current change (%, negative = inhibition) at 1uM": 16.6}, {"smiles": "CC(=O)Nc1ccc(C(=O)NCC(=O)OCc2ccccc2F)cc1", "hERG current change (%, negative = inhibition) at 1uM": 10.2}]}]}
